The full ranking holds about 33,000 sequences; the median of “E-score (-0.5 to 0.5)” is about -0.013, and the highest 2% start at about 0.3. The list shows a part of the results.
Each sequence was assayed against T1, Msn1 (UniProt P22148) (assay: PBM E-score (8-mer binding enrichment) (E-score (-0.5 to 0.5)); higher = stronger / more preferred TF binding; most listed sequences are background and not binding sites). Settings: protein concentration: 200 nM; construct: GST-full length.
T1 sequence: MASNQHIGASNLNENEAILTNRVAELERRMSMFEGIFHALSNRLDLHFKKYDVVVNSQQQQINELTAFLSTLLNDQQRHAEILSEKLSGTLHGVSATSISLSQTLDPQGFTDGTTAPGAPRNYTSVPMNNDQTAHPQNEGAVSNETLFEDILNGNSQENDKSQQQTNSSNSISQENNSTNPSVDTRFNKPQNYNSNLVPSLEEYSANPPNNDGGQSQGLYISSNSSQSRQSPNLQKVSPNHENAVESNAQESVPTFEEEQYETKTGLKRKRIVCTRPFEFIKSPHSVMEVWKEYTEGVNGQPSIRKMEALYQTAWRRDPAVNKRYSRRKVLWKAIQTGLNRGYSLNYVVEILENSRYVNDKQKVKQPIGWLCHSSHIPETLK
Summary of the method: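 Bound GST-tagged yeast transcription factors, applied at about 100-200 nM to double-stranded universal all-10-mer Agilent arrays, were detected with fluorescent anti-GST. Scans were normalised with masliner. A modified Wilcoxon-Mann-Whitney statistic, the E-score, was assigned to each ungapped eight-base word pooled with its reverse complement by the Universal PBM Analysis Suite.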
CGTCCGAC was tested, and the “PBM E-score” value was 0.0761.
GGAACGAC was tested, and the “PBM E-score” value was 0.0187.
In the case of GACGAAGC, the “PBM E-score” value is reported as -0.00099.
CTAATAGA was tested, and the “PBM E-score” value was 0.0687.
For GCCGCGAA, the “PBM E-score” value was -0.141.
With ATATAGTA the “PBM E-score” value was 0.209.
With CGAAATAG the “PBM E-score” value was -0.02.
In the case of CTCGAAGC, the “PBM E-score” value is reported as -0.124.
With ACAAGACC the “PBM E-score” value was 0.0532.
In the case of AAGTAGAA, the “PBM E-score” value is reported as 0.0804.
In the case of ACCAGGAG, the “PBM E-score” value is reported as -0.0931.
For TCTGCGCA, the “PBM E-score” value was 0.0234.
In the case of CTCATAAG, the “PBM E-score” value is reported as -0.129.
AGAGGTAC was tested, and the “PBM E-score” value was -0.0473.
In the case of CCTATATC, the “PBM E-score” value is reported as 0.0394.
For AATTCCTC, the “PBM E-score” value was -0.0412.
For GTCGTGGA, the “PBM E-score” value was 0.0639.
For ACTTGAGC, the “PBM E-score” value was -0.0164.
GATTTTAC was tested, and the “PBM E-score” value was 0.0875.
With ACATGAGT the “PBM E-score” value was 0.0627.
With TCCGATAA the “PBM E-score” value was 0.148.
With AGTGGATA the “PBM E-score” value was 0.0609.
For GAGTATGA, the “PBM E-score” value was 0.105.
ACTATTGA was tested, and the “PBM E-score” value was 0.144.
TGCACTAA was tested, and the “PBM E-score” value was 0.221.
CGGGGGAG was tested, and the “PBM E-score” value was -0.291.
In the case of AGCACATC, the “PBM E-score” value is reported as -0.0251.
With AGATTCGG the “PBM E-score” value was 0.155.
For GACGGATA, the “PBM E-score” value was -0.131.
In the case of ATCGCTTA, the “PBM E-score” value is reported as 0.0702.
For GTCGTTAA, the “PBM E-score” value was 0.17.
For AGCCCCTC, the “PBM E-score” value was -0.239.
For CCCAAAAC, the “PBM E-score” value was 0.108.
With CATTATGA the “PBM E-score” value was -0.0894.
For CACTAGTG, the “PBM E-score” value was 0.276.
CCCCTACG was tested, and the “PBM E-score” value was -0.428.
CGCACTAC was tested, and the “PBM E-score” value was -0.0329.
For CCAGCTTC, the “PBM E-score” value was -0.0377.
CAAGGATA was tested, and the “PBM E-score” value was -0.0736.
ACCACTTG was tested, and the “PBM E-score” value was 0.0211.
For CACGGTAG, the “PBM E-score” value was -0.0888.
In the case of CTGAATAA, the “PBM E-score” value is reported as 0.128.
TAATTATA was tested, and the “PBM E-score” value was 0.19.
GGCGAAGA was tested, and the “PBM E-score” value was -0.261.
In the case of AGACGGGG, the “PBM E-score” value is reported as -0.224.
CAGTCATG was tested, and the “PBM E-score” value was -0.159.
In the case of CAATACTA, the “PBM E-score” value is reported as 0.034.
In the case of AAACGTTG, the “PBM E-score” value is reported as -0.163.
With CCCGGGTA the “PBM E-score” value was -0.0261.
For AGCGTATG, the “PBM E-score” value was -0.049.
GACTCCTA was tested, and the “PBM E-score” value was -0.161.
In the case of AGCATCGC, the “PBM E-score” value is reported as -0.21.
CTTAGAAG was tested, and the “PBM E-score” value was -0.0878.
With AACGACTT the “PBM E-score” value was 0.00873.
In the case of CATTCTAC, the “PBM E-score” value is reported as 0.0124.
In the case of ACGTCGTG, the “PBM E-score” value is reported as 0.188.
For GATCTACC, the “PBM E-score” value was -0.137.
With CCCCACAG the “PBM E-score” value was -0.169.
AGCAATAG was tested, and the “PBM E-score” value was -0.148.
With GTTCCTCA the “PBM E-score” value was -0.11.
In the case of CGGCTTAA, the “PBM E-score” value is reported as 0.03.
In the case of ACCGTGCG, the “PBM E-score” value is reported as 0.00414.
AACATACA was tested, and the “PBM E-score” value was 0.146.
With AGAGGCTA the “PBM E-score” value was -0.2.
For GTAGGCAA, the “PBM E-score” value was -0.21.
AGTTTCCA was tested, and the “PBM E-score” value was -0.0378.
ACGTCTTG was tested, and the “PBM E-score” value was 0.153.
With TATCCACA the “PBM E-score” value was 0.00957.
In the case of CTATGGAC, the “PBM E-score” value is reported as 0.257.
ATTGCTGG was tested, and the “PBM E-score” value was -0.0281.
In the case of CGTAGCTA, the “PBM E-score” value is reported as -0.123.
For GTACCTAA, the “PBM E-score” value was 0.0172.
For AACTCTGG, the “PBM E-score” value was 0.0649.
With ACCCGCCC the “PBM E-score” value was -0.137.
In the case of AATAATCC, the “PBM E-score” value is reported as 0.0495.
For GATTTATA, the “PBM E-score” value was 0.215.
For CGGGCTGC, the “PBM E-score” value was -0.113.
With CTGGCTAC the “PBM E-score” value was -0.144.
In the case of ACAATCCT, the “PBM E-score” value is reported as 0.0491.
With CACATATG the “PBM E-score” value was -0.121.
ATGTGTCA was tested, and the “PBM E-score” value was 0.217.
With AACCCTGC the “PBM E-score” value was -0.188.
For AAGGGATA, the “PBM E-score” value was 0.0672.
For AACCAAGA, the “PBM E-score” value was 0.188.
For CGACAACC, the “PBM E-score” value was 0.0461.
In the case of GCAAGCGA, the “PBM E-score” value is reported as -0.0199.
For AAAGAGCT, the “PBM E-score” value was -0.178.
With AGTTGAAT the “PBM E-score” value was 0.124.
In the case of CAGCTCGC, the “PBM E-score” value is reported as -0.0622.
With ATGGACTG the “PBM E-score” value was -0.00616.
In the case of CTGAAAGC, the “PBM E-score” value is reported as 0.0584.
With TCCACCAA the “PBM E-score” value was 0.13.
AATTTCTC was tested, and the “PBM E-score” value was 0.0103.
CGACTACA was tested, and the “PBM E-score” value was 0.00361.
With AGCTATAG the “PBM E-score” value was -0.255.
For GGGGGTAC, the “PBM E-score” value was -0.145.
For AGCAAAGA, the “PBM E-score” value was 0.0493.
GAAATTTC was tested, and the “PBM E-score” value was -0.246.
For AGGACCGC, the “PBM E-score” value was -0.042.
For GAGTACTA, the “PBM E-score” value was 0.198.
With ATGTGCGA the “PBM E-score” value was 0.0765.
In the case of CGTGCGCC, the “PBM E-score” value is reported as 0.0449.
In the case of ATTGGTCC, the “PBM E-score” value is reported as 0.201.
With CACCAAGA the “PBM E-score” value was 0.0621.
In the case of ATGGCGGA, the “PBM E-score” value is reported as -0.141.
GCGGATAC was tested, and the “PBM E-score” value was -0.00158.
With AGGAGACT the “PBM E-score” value was -0.275.
With AACGTTGG the “PBM E-score” value was 0.022.
With CACGCTCA the “PBM E-score” value was 0.123.
With AGTGGCAA the “PBM E-score” value was -0.0795.
With ATAAGTCG the “PBM E-score” value was 0.0746.
For AACCCTCC, the “PBM E-score” value was -0.303.
In the case of CTCCACAA, the “PBM E-score” value is reported as -0.112.
In the case of CCGAACGG, the “PBM E-score” value is reported as 0.139.
GGGTAGGA was tested, and the “PBM E-score” value was -0.102.
CTAAAGGA was tested, and the “PBM E-score” value was 0.0586.
For ATTTTTTG, the “PBM E-score” value was 0.195.
With GCCCAAAA the “PBM E-score” value was -0.0493.
In the case of GGATATCC, the “PBM E-score” value is reported as 0.12.
With AGACGACT the “PBM E-score” value was 0.0368.
For GAATATCC, the “PBM E-score” value was -0.00573.
In the case of CACATTAG, the “PBM E-score” value is reported as -0.212.
For ATTGCTAA, the “PBM E-score” value was 0.22.
In the case of CGGAACTA, the “PBM E-score” value is reported as 0.175.
GTAGCTAC was tested, and the “PBM E-score” value was 0.0785.
AGCAGTAG was tested, and the “PBM E-score” value was -0.194.
In the case of CCGCCTAG, the “PBM E-score” value is reported as -0.0541.
In the case of AATGGTCC, the “PBM E-score” value is reported as 0.138.
With AGACCAGA the “PBM E-score” value was 0.059.
For AAGCGCAA, the “PBM E-score” value was 0.0634.
AGGGAGGA was tested, and the “PBM E-score” value was -0.232.
For ACTGTGGA, the “PBM E-score” value was -0.0783.
For GATCCGCC, the “PBM E-score” value was -0.0635.
For CGCCTGAC, the “PBM E-score” value was -0.0177.
For GTCGAGCA, the “PBM E-score” value was -0.194.
In the case of ATTCCCTG, the “PBM E-score” value is reported as -0.0999.
With ATCTGCGA the “PBM E-score” value was 0.0576.
With CCCGATCG the “PBM E-score” value was -0.0816.
With GAACTGCC the “PBM E-score” value was -0.188.
In the case of ATGGAGTC, the “PBM E-score” value is reported as 0.038.
In the case of GACCGATA, the “PBM E-score” value is reported as 0.0836.
CGGTGGAA was tested, and the “PBM E-score” value was -0.251.
With AGGGAAAG the “PBM E-score” value was -0.175.
GAAGATAA was tested, and the “PBM E-score” value was 0.0217.
AACTTAAG was tested, and the “PBM E-score” value was 0.103.
CAAGTCAG was tested, and the “PBM E-score” value was -0.0405.
ACGCAACT was tested, and the “PBM E-score” value was 0.0605.
In the case of CTTGGATC, the “PBM E-score” value is reported as -0.00386.
In the case of CCGGCGTA, the “PBM E-score” value is reported as -0.0928.
In the case of CCTTCGAG, the “PBM E-score” value is reported as -0.0865.
In the case of GATTTTTA, the “PBM E-score” value is reported as -0.0562.
For GATAGCCC, the “PBM E-score” value was -0.263.
AACGTGCA was tested, and the “PBM E-score” value was -0.152.
CATCTGGA was tested, and the “PBM E-score” value was -0.103.
ACGACTCT was tested, and the “PBM E-score” value was -0.0447.
CGATCACC was tested, and the “PBM E-score” value was -0.0331.
For CTGCGAAA, the “PBM E-score” value was -0.0565.
AGCTGACT was tested, and the “PBM E-score” value was -0.0596.
For CTGTAGTA, the “PBM E-score” value was 0.194.
For AGCACTAG, the “PBM E-score” value was 0.0492.
In the case of CTGATATA, the “PBM E-score” value is reported as -0.0313.
GCAGATAC was tested, and the “PBM E-score” value was -0.049.
GTTCATCA was tested, and the “PBM E-score” value was -0.0252.
GACTACCA was tested, and the “PBM E-score” value was -0.0815.
In the case of CCGGGTAA, the “PBM E-score” value is reported as 0.172.
With GAGGCTGC the “PBM E-score” value was -0.185.
With CGAGCCCC the “PBM E-score” value was -0.306.
For GAAGAATC, the “PBM E-score” value was -0.0456.
For CTGTATCA, the “PBM E-score” value was 0.01.
For ATTGTTGG, the “PBM E-score” value was 0.207.
AGTGGGAA was tested, and the “PBM E-score” value was 0.0529.
With CACTCTGA the “PBM E-score” value was -0.291.
